# Some of the results follow.
# Tests used:
# Experiment in all cases: glycan array binding signal (z-score within array); higher = stronger binding
# Conditions in all cases: glycan notation: IUPAC condensed, linker removed; mutation: R74S
# [1] = molecular target: Gal3S(b1-3)[Fuc(a1-4)]GlcNAc
# How it was run: (§1)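 The binding signal is a Z-score computed within each array. Data were drawn from 3228 arrays in the Consortium for Functional Glycomics database, restricted to those with a known protein sequence. Scores were averaged over arrays of the same protein sequence at different concentrations or buffers, and over linkers, and negative values can be taken as non-binding.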
# Gal3S(b1-4)Glc = molecular target: Gal3S(b1-4)Glc
# How it was run: as §1
# Gal3S(b1-4)Glc6S = molecular target: Gal3S(b1-4)Glc6S
# How it was run: as §1
# Gal3S(b1-4)GlcNAc = molecular target: Gal3S(b1-4)GlcNAc
# How it was run: as §1
# [2] = molecular target: Gal3S(b1-4)[Fuc(a1-3)]Glc6S
# How it was run: as §1
# [3] = molecular target: Gal3S(b1-4)[Fuc(a1-3)]GlcNAc
# How it was run: as §1
# [4] = molecular target: Gal3S(b1-4)[Fuc(a1-3)]GlcNAc6S
# How it was run: as §1
# Gal3S4S(b1-4)GlcNAc = molecular target: Gal3S4S(b1-4)GlcNAc
# How it was run: as §1
# Gal3S6S(b1-4)GlcNAc = molecular target: Gal3S6S(b1-4)GlcNAc
# How it was run: as §1
# Gal3S6S(b1-4)GlcNAc6S = molecular target: Gal3S6S(b1-4)GlcNAc6S
# How it was run: as §1
# Gal4S(b1-4)GlcNAc = molecular target: Gal4S(b1-4)GlcNAc
# How it was run: as §1
# Gal4S6S(b1-4)GlcNAc = molecular target: Gal4S6S(b1-4)GlcNAc
# How it was run: as §1
# Gal6P(b1-4)GlcNAc = molecular target: Gal6P(b1-4)GlcNAc
# How it was run: as §1
# Gal6S(b1-3)GlcNAc = molecular target: Gal6S(b1-3)GlcNAc
# How it was run: as §1
# Gal6S(b1-3)GlcNAc6S = molecular target: Gal6S(b1-3)GlcNAc6S
# How it was run: as §1
# Gal6S(b1-4)Glc = molecular target: Gal6S(b1-4)Glc
# How it was run: as §1
# Gal6S(b1-4)Glc6S = molecular target: Gal6S(b1-4)Glc6S
# How it was run: as §1
# Gal6S(b1-4)GlcNAc = molecular target: Gal6S(b1-4)GlcNAc
# How it was run: as §1
# Gal6S(b1-4)GlcNAc6S = molecular target: Gal6S(b1-4)GlcNAc6S
# How it was run: as §1
# GalNAc(a1-3)Gal = molecular target: GalNAc(a1-3)Gal
# How it was run: as §1
# GalNAc(a1-3)GalNAc = molecular target: GalNAc(a1-3)GalNAc
# How it was run: as §1
# [5] = molecular target: GalNAc(a1-3)GalNAc(b1-3)Gal(a1-4)Gal(b1-4)Glc
# How it was run: as §1
# [6] = molecular target: GalNAc(a1-3)GalNAc(b1-3)Gal(a1-4)Gal(b1-4)GlcNAc
# How it was run: as §1
# GalNAc(b1-3)Gal = molecular target: GalNAc(b1-3)Gal
# How it was run: as §1
# [7] = molecular target: GalNAc(b1-3)Gal(a1-4)Gal(b1-4)GlcNAc
# How it was run: as §1
# [8] = molecular target: GalNAc(b1-3)Gal(a1-4)Gal(b1-4)GlcNAc(b1-3)Gal(b1-4)Glc
# How it was run: as §1
# [9] = molecular target: GalNAc(b1-3)Gal(a1-6)Gal(b1-4)Glc
# How it was run: as §1
# GalNAc(b1-3)GalNAc = molecular target: GalNAc(b1-3)GalNAc
# How it was run: as §1
# GalNAc(b1-3)GlcNAc = molecular target: GalNAc(b1-3)GlcNAc
# How it was run: as §1
# GalNAc(b1-4)Gal(b1-4)Glc = molecular target: GalNAc(b1-4)Gal(b1-4)Glc
# How it was run: as §1
# GalNAc(b1-4)GlcNAc = molecular target: GalNAc(b1-4)GlcNAc
# How it was run: as §1
# [10] = molecular target: GalNAc(b1-4)GlcNAc(b1-2)Man
# How it was run: as §1
# [11] = molecular target: GalNAc(b1-4)GlcNAc(b1-2)Man(a1-3)[GalNAc(b1-4)GlcNAc(b1-2)Man(a1-6)]Man(b1-4)GlcNAc(b1-4)GlcNAc
# How it was run: as §1
# [12] = molecular target: GalNAc(b1-4)GlcNAc(b1-3)GalNAc(b1-4)GlcNAc
# How it was run: as §1
# GalNAc(b1-4)GlcNAc6S = molecular target: GalNAc(b1-4)GlcNAc6S
# How it was run: as §1
# GalNAc(b1-6)GalNAc = molecular target: GalNAc(b1-6)GalNAc
# How it was run: as §1
# GalNAc3S(b1-4)GlcNAc = molecular target: GalNAc3S(b1-4)GlcNAc
# How it was run: as §1
# GalNAc3S(b1-4)GlcNAc3S = molecular target: GalNAc3S(b1-4)GlcNAc3S
# How it was run: as §1
# [13] = molecular target: GalNAc3S(b1-4)[Fuc(a1-3)]GlcNAc
# How it was run: as §1
# GalNAc4S6S(b1-4)GlcNAc = molecular target: GalNAc4S6S(b1-4)GlcNAc
# How it was run: as §1
# GalNAc6S(b1-4)GlcNAc = molecular target: GalNAc6S(b1-4)GlcNAc
# How it was run: as §1
# Glc(a1-4)Glc = molecular target: Glc(a1-4)Glc
# How it was run: as §1
# [14] = molecular target: Glc(a1-4)Glc(a1-4)Glc(a1-4)Glc
# How it was run: as §1
# Glc(a1-6)Glc(a1-6)Glc = molecular target: Glc(a1-6)Glc(a1-6)Glc
# How it was run: as §1
# [15] = molecular target: Glc(a1-6)Glc(a1-6)Glc(a1-6)Glc
# How it was run: as §1
binder,measurement,setting,value
Gal 7 (Homo sapiens) (protein) MSNVPHKSSLPEGIRPGTVLRIRGLVPPNASRFHVNLLCGEEGGSDAALHFNPRLDTSEVVFNSKEGGSWGREESGPGVPFGRGQPFEVLIIASDDGFKAVVGDAQYHHFRHRLPLARVRLVEVGGDVQLDSVRIF,glycan array binding signal (z-score),[1],0.757
same,glycan array binding signal (z-score),Gal3S(b1-4)Glc,-0.03
same,glycan array binding signal (z-score),Gal3S(b1-4)Glc6S,0.166
same,glycan array binding signal (z-score),Gal3S(b1-4)GlcNAc,0.004
same,glycan array binding signal (z-score),[2],0.633
same,glycan array binding signal (z-score),[3],-0.001
same,glycan array binding signal (z-score),[4],0.381
same,glycan array binding signal (z-score),Gal3S4S(b1-4)GlcNAc,-0.408
same,glycan array binding signal (z-score),Gal3S6S(b1-4)GlcNAc,-0.38
same,glycan array binding signal (z-score),Gal3S6S(b1-4)GlcNAc6S,-0.496
same,glycan array binding signal (z-score),Gal4S(b1-4)GlcNAc,-0.406
same,glycan array binding signal (z-score),Gal4S6S(b1-4)GlcNAc,-0.228
same,glycan array binding signal (z-score),Gal6P(b1-4)GlcNAc,-0.363
same,glycan array binding signal (z-score),Gal6S(b1-3)GlcNAc,0.001
same,glycan array binding signal (z-score),Gal6S(b1-3)GlcNAc6S,0.436
same,glycan array binding signal (z-score),Gal6S(b1-4)Glc,-0.266
same,glycan array binding signal (z-score),Gal6S(b1-4)Glc6S,-0.366
same,glycan array binding signal (z-score),Gal6S(b1-4)GlcNAc,-0.612
same,glycan array binding signal (z-score),Gal6S(b1-4)GlcNAc6S,-0.458
same,glycan array binding signal (z-score),GalNAc(a1-3)Gal,-0.131
same,glycan array binding signal (z-score),GalNAc(a1-3)GalNAc,-0.646
same,glycan array binding signal (z-score),[5],-0.602
same,glycan array binding signal (z-score),[6],-0.412
same,glycan array binding signal (z-score),GalNAc(b1-3)Gal,-0.441
same,glycan array binding signal (z-score),[7],0.333
same,glycan array binding signal (z-score),[8],-0.451
same,glycan array binding signal (z-score),[9],-0.396
same,glycan array binding signal (z-score),GalNAc(b1-3)GalNAc,-0.531
same,glycan array binding signal (z-score),GalNAc(b1-3)GlcNAc,-0.28
same,glycan array binding signal (z-score),GalNAc(b1-4)Gal(b1-4)Glc,0.126
same,glycan array binding signal (z-score),GalNAc(b1-4)GlcNAc,0.29
same,glycan array binding signal (z-score),[10],-0.462
same,glycan array binding signal (z-score),[11],0.227
same,glycan array binding signal (z-score),[12],0.573
same,glycan array binding signal (z-score),GalNAc(b1-4)GlcNAc6S,-0.198
same,glycan array binding signal (z-score),GalNAc(b1-6)GalNAc,-0.385
same,glycan array binding signal (z-score),GalNAc3S(b1-4)GlcNAc,-0.421
same,glycan array binding signal (z-score),GalNAc3S(b1-4)GlcNAc3S,-0.604
same,glycan array binding signal (z-score),[13],-0.364
same,glycan array binding signal (z-score),GalNAc4S6S(b1-4)GlcNAc,-0.49
same,glycan array binding signal (z-score),GalNAc6S(b1-4)GlcNAc,-0.472
same,glycan array binding signal (z-score),Glc(a1-4)Glc,0.327
same,glycan array binding signal (z-score),[14],-0.298
same,glycan array binding signal (z-score),Glc(a1-6)Glc(a1-6)Glc,-0.271
same,glycan array binding signal (z-score),[15],0.051

# From the supplement of paper PMC8728848
